Reference: PMC5700166
The list shows a part of the results, in another mix than the full data. The list includes weakly bound sequences.

These sequences were tested against T1, GST-Co-NF-kB (UniProt F1ARL5) (assay: protein-binding microarray (PBM)). Conditions: PBM: ~300 nM protein, 6 mM HEPES pH 7.8, 80 mM KCl, 0.5 mM EDTA, 0.5 mM EGTA, 6% glycerol, 35 ng/ul poly-dIdC, 1% milk, 1 h, room temperature; high values mean tight binding; double strand, one strand shown.
T1 sequence: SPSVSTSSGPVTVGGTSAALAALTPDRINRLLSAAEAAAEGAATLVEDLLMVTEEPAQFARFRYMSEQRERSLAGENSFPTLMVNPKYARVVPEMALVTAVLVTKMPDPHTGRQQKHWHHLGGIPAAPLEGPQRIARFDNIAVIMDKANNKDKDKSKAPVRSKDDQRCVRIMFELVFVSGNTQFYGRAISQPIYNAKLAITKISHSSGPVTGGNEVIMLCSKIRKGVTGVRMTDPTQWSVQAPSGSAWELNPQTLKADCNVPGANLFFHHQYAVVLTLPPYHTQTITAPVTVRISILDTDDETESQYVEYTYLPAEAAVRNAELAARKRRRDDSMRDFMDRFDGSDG

Row | Sequence | binding signal [z-score]
1 | CCGATTAACATCAGAAAATTTCCTGATGTTAATCGGGTCTTGATTCGCTTGACGCTGCTG | 0.283
2 | CCGATTAACATCACAAATTTTCCTGATGTTAATCGGGTCTTGATTCGCTTGACGCTGCTG | 1.2
3 | CCGATTAACATCAAGGCAATTCCTGATGTTAATCGGGTCTTGATTCGCTTGACGCTGCTG | 0.339
4 | CCGATTAACATCAGGAAACTACATGATGTTAATCGGGTCTTGATTCGCTTGACGCTGCTG | 0.384
5 | CCGATTAACATCAGAAATTCCCCTGATGTTAATCGGGTCTTGATTCGCTTGACGCTGCTG | 8.74
6 | CCGATTAACATCAAAGGATTTCCTGATGTTAATCGGGTCTTGATTCGCTTGACGCTGCTG | -0.133
7 | CCGATTAACATCACCGCAGCATGTGATGTTAATCGGGTCTTGATTCGCTTGACGCTGCTG | -0.299
8 | CCGATTAACATCAGAAAATTACATGATGTTAATCGGGTCTTGATTCGCTTGACGCTGCTG | 0.253
9 | CCGATTAACATCAGGAATTGCCATGATGTTAATCGGGTCTTGATTCGCTTGACGCTGCTG | -0.263
10 | CCGATTAACATCAAGTAATTTTCTGATGTTAATCGGGTCTTGATTCGCTTGACGCTGCTG | -0.0369
11 | CCGATTAACATCATGGTACTTGTTGATGTTAATCGGGTCTTGATTCGCTTGACGCTGCTG | -0.313
12 | CCGATTAACATCAGTAGTTTCCATGATGTTAATCGGGTCTTGATTCGCTTGACGCTGCTG | 0.56
13 | CCGATTAACATCACGTTATTTCCTGATGTTAATCGGGTCTTGATTCGCTTGACGCTGCTG | 0.14
14 | CCGATTAACATCAAGTTTTTTCCTGATGTTAATCGGGTCTTGATTCGCTTGACGCTGCTG | 0.462
15 | CCGATTAACATCAAAAAATTTCCTGATGTTAATCGGGTCTTGATTCGCTTGACGCTGCTG | 0.466
16 | CCGATTAACATCACAGAATTTCCTGATGTTAATCGGGTCTTGATTCGCTTGACGCTGCTG | 0.217
17 | CCGATTAACATCAGCATCCACGGTGATGTTAATCGGGTCTTGATTCGCTTGACGCTGCTG | 0.81
18 | CCGATTAACATCAGGAATATACATGATGTTAATCGGGTCTTGATTCGCTTGACGCTGCTG | -0.0292
19 | CCGATTAACATCAGGAAATAACATGATGTTAATCGGGTCTTGATTCGCTTGACGCTGCTG | 0.707
20 | CCGATTAACATCAGGAATTTCTATGATGTTAATCGGGTCTTGATTCGCTTGACGCTGCTG | 0.417

Row | Sequence | binding signal [z-score]
21 | CCGATTAACATCAATAAATGTACTGATGTTAATCGGGTCTTGATTCGCTTGACGCTGCTG | -0.0306
22 | CCGATTAACATCAGGAAATTCACTGATGTTAATCGGGTCTTGATTCGCTTGACGCTGCTG | 0.217
23 | CCGATTAACATCAGGGAGATACCTGATGTTAATCGGGTCTTGATTCGCTTGACGCTGCTG | 1.64
24 | CCGATTAACATCAGGGGGGTAACTGATGTTAATCGGGTCTTGATTCGCTTGACGCTGCTG | 6.37
25 | CCGATTAACATCAAAAACTACCCTGATGTTAATCGGGTCTTGATTCGCTTGACGCTGCTG | 3.13
26 | CCGATTAACATCAAGTATTTTCCTGATGTTAATCGGGTCTTGATTCGCTTGACGCTGCTG | 0.831
27 | CCGATTAACATCAGAAAGTTTCCTGATGTTAATCGGGTCTTGATTCGCTTGACGCTGCTG | -0.389
28 | CCGATTAACATCAAAAATTCCATTGATGTTAATCGGGTCTTGATTCGCTTGACGCTGCTG | 0.132
29 | CCGATTAACATCAGGAAAAACACTGATGTTAATCGGGTCTTGATTCGCTTGACGCTGCTG | 0.781
30 | CCGATTAACATCAAGTACATTCCTGATGTTAATCGGGTCTTGATTCGCTTGACGCTGCTG | -0.0276
31 | CCGATTAACATCAAGAAATCCCCTGATGTTAATCGGGTCTTGATTCGCTTGACGCTGCTG | 4.27
32 | CCGATTAACATCAGGAAAATACATGATGTTAATCGGGTCTTGATTCGCTTGACGCTGCTG | 0.634
33 | CCGATTAACATCAAAATTCCCCCTGATGTTAATCGGGTCTTGATTCGCTTGACGCTGCTG | 11.3
34 | CCGATTAACATCAGGCGGTAAGGTGATGTTAATCGGGTCTTGATTCGCTTGACGCTGCTG | -0.02
35 | CCGATTAACATCAAAATTTTCCTTGATGTTAATCGGGTCTTGATTCGCTTGACGCTGCTG | -0.228
36 | CCGATTAACATCAGGAAAGTCCATGATGTTAATCGGGTCTTGATTCGCTTGACGCTGCTG | -0.0853
37 | CCGATTAACATCAAAAAACCGTTTGATGTTAATCGGGTCTTGATTCGCTTGACGCTGCTG | -0.127
38 | CCGATTAACATCAAAATTCCAGGTGATGTTAATCGGGTCTTGATTCGCTTGACGCTGCTG | 0.0807
39 | CCGATTAACATCAGCGGAATTCCTGATGTTAATCGGGTCTTGATTCGCTTGACGCTGCTG | 0.0469
40 | CCGATTAACATCAGTGGTACTTGTGATGTTAATCGGGTCTTGATTCGCTTGACGCTGCTG | 0.414

What follows are sequences tested against T2, GST-Aq-NF-kB (UniProt A9Y5G7) (assay: protein-binding microarray (PBM)). Conditions: PBM: ~300 nM protein, 6 mM HEPES pH 7.8, 80 mM KCl, 0.5 mM EDTA, 0.5 mM EGTA, 6% glycerol, 35 ng/ul poly-dIdC, 1% milk, 1 h, room temperature; Ap Aiptasia and Nv Nematostella (sea anemones) / Co Capsaspora / Aq Amphimedon (sponge) / Dm Drosophila / Hu human; RHD is the Rel homology domain; high values mean tight binding; most listed sequences are background and not binding sites; double strand, one strand shown.
T2 sequence: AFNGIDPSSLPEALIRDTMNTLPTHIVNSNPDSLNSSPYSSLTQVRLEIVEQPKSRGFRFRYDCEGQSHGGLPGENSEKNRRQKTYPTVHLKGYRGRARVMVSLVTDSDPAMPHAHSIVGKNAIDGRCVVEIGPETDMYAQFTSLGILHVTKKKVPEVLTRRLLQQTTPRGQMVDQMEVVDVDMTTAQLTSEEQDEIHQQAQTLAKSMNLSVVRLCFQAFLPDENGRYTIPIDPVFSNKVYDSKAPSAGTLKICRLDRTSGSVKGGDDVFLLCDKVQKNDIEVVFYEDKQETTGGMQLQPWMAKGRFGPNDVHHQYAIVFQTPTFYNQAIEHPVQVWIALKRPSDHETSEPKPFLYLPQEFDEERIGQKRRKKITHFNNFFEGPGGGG

Row | Sequence | binding signal [z-score]
41 | CCGATTAACATCAGAAAATTTCCTGATGTTAATCGGGTCTTGATTCGCTTGACGCTGCTG | 2.09
42 | CCGATTAACATCACAAATTTTCCTGATGTTAATCGGGTCTTGATTCGCTTGACGCTGCTG | 0.791
43 | CCGATTAACATCAAGGCAATTCCTGATGTTAATCGGGTCTTGATTCGCTTGACGCTGCTG | 0.552
44 | CCGATTAACATCAGGAAACTACATGATGTTAATCGGGTCTTGATTCGCTTGACGCTGCTG | 0.544
45 | CCGATTAACATCAGAAATTCCCCTGATGTTAATCGGGTCTTGATTCGCTTGACGCTGCTG | 8.89
46 | CCGATTAACATCAAAGGATTTCCTGATGTTAATCGGGTCTTGATTCGCTTGACGCTGCTG | 1.01
47 | CCGATTAACATCACCGCAGCATGTGATGTTAATCGGGTCTTGATTCGCTTGACGCTGCTG | 0.016
48 | CCGATTAACATCAGAAAATTACATGATGTTAATCGGGTCTTGATTCGCTTGACGCTGCTG | -0.0656
49 | CCGATTAACATCAGGAATTGCCATGATGTTAATCGGGTCTTGATTCGCTTGACGCTGCTG | 1.02
50 | CCGATTAACATCAAGTAATTTTCTGATGTTAATCGGGTCTTGATTCGCTTGACGCTGCTG | 0.0307
51 | CCGATTAACATCATGGTACTTGTTGATGTTAATCGGGTCTTGATTCGCTTGACGCTGCTG | -0.0709
52 | CCGATTAACATCAGTAGTTTCCATGATGTTAATCGGGTCTTGATTCGCTTGACGCTGCTG | 0.679
53 | CCGATTAACATCACGTTATTTCCTGATGTTAATCGGGTCTTGATTCGCTTGACGCTGCTG | 0.714
54 | CCGATTAACATCAAGTTTTTTCCTGATGTTAATCGGGTCTTGATTCGCTTGACGCTGCTG | 0.43
55 | CCGATTAACATCAAAAAATTTCCTGATGTTAATCGGGTCTTGATTCGCTTGACGCTGCTG | 2.22
56 | CCGATTAACATCACAGAATTTCCTGATGTTAATCGGGTCTTGATTCGCTTGACGCTGCTG | 1.36
57 | CCGATTAACATCAGCATCCACGGTGATGTTAATCGGGTCTTGATTCGCTTGACGCTGCTG | 0.361
58 | CCGATTAACATCAGGAATATACATGATGTTAATCGGGTCTTGATTCGCTTGACGCTGCTG | -0.254
59 | CCGATTAACATCAGGAAATAACATGATGTTAATCGGGTCTTGATTCGCTTGACGCTGCTG | 0.601
60 | CCGATTAACATCAGGAATTTCTATGATGTTAATCGGGTCTTGATTCGCTTGACGCTGCTG | 1.23

Row | Sequence | binding signal [z-score]
61 | CCGATTAACATCAATAAATGTACTGATGTTAATCGGGTCTTGATTCGCTTGACGCTGCTG | -0.233
62 | CCGATTAACATCAGGAAATTCACTGATGTTAATCGGGTCTTGATTCGCTTGACGCTGCTG | 0.721
63 | CCGATTAACATCAGGGAGATACCTGATGTTAATCGGGTCTTGATTCGCTTGACGCTGCTG | 7.69
64 | CCGATTAACATCAGGGGGGTAACTGATGTTAATCGGGTCTTGATTCGCTTGACGCTGCTG | 4.37
65 | CCGATTAACATCAAAAACTACCCTGATGTTAATCGGGTCTTGATTCGCTTGACGCTGCTG | 4.72
66 | CCGATTAACATCAAGTATTTTCCTGATGTTAATCGGGTCTTGATTCGCTTGACGCTGCTG | 0.748
67 | CCGATTAACATCAGAAAGTTTCCTGATGTTAATCGGGTCTTGATTCGCTTGACGCTGCTG | 1.06
68 | CCGATTAACATCAAAAATTCCATTGATGTTAATCGGGTCTTGATTCGCTTGACGCTGCTG | 0.994
69 | CCGATTAACATCAGGAAAAACACTGATGTTAATCGGGTCTTGATTCGCTTGACGCTGCTG | 0.798
70 | CCGATTAACATCAAGTACATTCCTGATGTTAATCGGGTCTTGATTCGCTTGACGCTGCTG | 0.319
71 | CCGATTAACATCAAGAAATCCCCTGATGTTAATCGGGTCTTGATTCGCTTGACGCTGCTG | 7.7
72 | CCGATTAACATCAGGAAAATACATGATGTTAATCGGGTCTTGATTCGCTTGACGCTGCTG | 0.803
73 | CCGATTAACATCAAAATTCCCCCTGATGTTAATCGGGTCTTGATTCGCTTGACGCTGCTG | 9.32
74 | CCGATTAACATCAGGCGGTAAGGTGATGTTAATCGGGTCTTGATTCGCTTGACGCTGCTG | 0.783
75 | CCGATTAACATCAAAATTTTCCTTGATGTTAATCGGGTCTTGATTCGCTTGACGCTGCTG | 1.12
76 | CCGATTAACATCAGGAAAGTCCATGATGTTAATCGGGTCTTGATTCGCTTGACGCTGCTG | 3.71
77 | CCGATTAACATCAAAAAACCGTTTGATGTTAATCGGGTCTTGATTCGCTTGACGCTGCTG | 0.345
78 | CCGATTAACATCAAAATTCCAGGTGATGTTAATCGGGTCTTGATTCGCTTGACGCTGCTG | 0.749
79 | CCGATTAACATCAGCGGAATTCCTGATGTTAATCGGGTCTTGATTCGCTTGACGCTGCTG | 1.89
80 | CCGATTAACATCAGTGGTACTTGTGATGTTAATCGGGTCTTGATTCGCTTGACGCTGCTG | 0.0921
